Data from PubChem BioAssay AID624417 (National Center for Advancing Translational Sciences (NCATS), 2012).
The campaign covered roughly 410,000 compounds. About 6,400 (1.6%) were called active. This list was built around the results that the source calls inconclusive (neither active nor inactive); the mix of calls is not that of the screen. Calls come from the whole dose curve; as a rule, active = well fitted inhibition curve with a large enough effect; inconclusive = small, poorly fitted or top-dose-only effect; inactive = no such curve, though single readings can be large or run the other way. No potency is given beside an inconclusive call; the fits are too rough.

Biological target: Glucagon-like peptide 1 receptor (Homo sapiens) (UniProt P43220)
Test: qHTS of GLP-1 Receptor Inverse Agonists (Inhibition Mode); note: nearly all actives have a fitted effect of over 55% in size
Conditions: HEK293 GLP-1R CRE-luciferase, luminescence, 24 h, GLP-1R form is constitutively active; activity change, negative = inhibition: at 38.3 µM (top of the series) unless noted
Outline: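 HEK293 cells stably co-expressing a cAMP-responsive luciferase reporter and constitutively active GLP-1R were seeded, incubated 12 h, then exposed to compounds for 24 h at 37 C. Luminescence was read 12 min after detection reagent; inverse agonists lower signal.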
% is set by controls: 0 for no effect and ±100 for the full control effect; potency is the fitted concentration of half-maximal effect; tags give direction and shape of the fitted curve.

Chain of UniProt P43220 (P43220 whole entry, looked up): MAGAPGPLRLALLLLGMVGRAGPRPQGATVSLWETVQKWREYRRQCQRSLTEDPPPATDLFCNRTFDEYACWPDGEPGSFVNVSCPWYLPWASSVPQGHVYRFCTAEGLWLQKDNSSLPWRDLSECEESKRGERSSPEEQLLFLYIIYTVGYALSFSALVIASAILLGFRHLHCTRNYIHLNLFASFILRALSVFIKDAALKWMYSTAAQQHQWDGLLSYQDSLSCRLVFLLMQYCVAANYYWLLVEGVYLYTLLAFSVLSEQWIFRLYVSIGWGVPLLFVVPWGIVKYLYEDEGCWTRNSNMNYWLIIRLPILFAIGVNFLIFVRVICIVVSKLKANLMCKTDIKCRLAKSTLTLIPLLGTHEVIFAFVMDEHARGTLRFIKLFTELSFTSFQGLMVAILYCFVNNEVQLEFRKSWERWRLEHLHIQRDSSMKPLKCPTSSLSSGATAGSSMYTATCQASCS

SMILES	Potency	activity change, negative = inhibition
O=C(O)C1C2CCC(O2)C1C(=O)Nc1cccc(Cl)c1 (configuration not stated)	inconclusive [inhibitor, single point]	
CCN(CC)CCNCc1cc(Br)ccc1OCC(=O)NCc1ccccc1		inactive: -14.8%
CN(N=Cc1ccccc1O)c1ccc2ccccc2n1		inactive: -9.56%
CCOC(=O)[C@]12Cc3c(cc(OC)c(OC)c3OC)[C@H]1N(Cc1ccccc1)C(=O)c1cc(OC)ccc12	inconclusive [inhibitor, single point]	
Cc1ccc(NC(=O)CCC(=O)N/N=C/c2cc([N+](=O)[O-])ccc2O)cc1	inconclusive [inhibitor, partial curve, poor fit]	
Cc1cc(C)cc(N2C(N)=NC(N)=NC2c2cccc(Cl)c2)c1 (configuration not stated)	inconclusive [inhibitor, single point]	
O=C(NCc1cccs1)C(=O)NCC(c1ccco1)N1CCN(c2ccc(F)cc2)CC1 (configuration not stated)	inconclusive [inhibitor, partial curve, poor fit]	
O=C1CC(=O)OC(c2ccc([N+](=O)[O-])cc2)O1	inconclusive [inhibitor, full curve, poor fit]	
Cn1c(O)c(N=NC(=S)Nc2ccccc2F)c2cc(S(=O)(=O)N3CCOCC3)ccc21	inconclusive [inhibitor, full curve, poor fit]	
Cc1ccccc1OC(C)C(=O)NCCC1=CCCCC1 (configuration not stated)	inconclusive [inhibitor, single point]	
Cc1nnc(NC(=O)c2ccc(S(=O)(=O)N(C)Cc3ccccc3)cc2)o1	inconclusive [inhibitor, single point]	
Cc1ccc(/C=C(\C#N)C(=O)Nc2cccc(Br)c2)o1		inactive: 1.44%
C[C@H](CO)N1C[C@H](C)[C@@H](CN(C)S(=O)(=O)c2ccc(F)cc2)Oc2c(NC(=O)Nc3ccc(C(F)(F)F)cc3)cccc2C1=O	inconclusive [inhibitor, single point]	
CC(C)CC(=O)Nc1nc(-c2ccc(S(=O)(=O)N3CCOCC3)cc2)cs1		inactive: -5.72%
O=C(Nc1ccc(Br)cc1)C1OCCc2ccccc21 (configuration not stated)	inconclusive [inhibitor, single point]	
Cc1cccc(NS(=O)(=O)c2ccc(C)c(C(=O)NC3CCN(Cc4ccccc4)CC3)c2)c1	inconclusive [inhibitor, single point]	
C#CCN1C=C(C(=O)OCC)C(C)N(Cc2ccccc2I)S1(=O)=O (configuration not stated)	inconclusive [inhibitor, partial curve, poor fit]	
COc1cc2c(C(=O)N3CCN(C)CC3)c(CSc3ccccc3)n(C)c2cc1Br	inconclusive [inhibitor, partial curve, poor fit]	
Cc1ccc(C(NC(=O)c2ccccc2)C(Cl)(Cl)Cl)cc1 (configuration not stated)	inconclusive [inhibitor, partial curve, poor fit]	
Cc1oc(-c2ccc(Cl)cc2)nc1CN1CCCC(C(=O)NCc2ccccc2)C1 (configuration not stated)	inconclusive [inhibitor, single point]	
CCN(CC)S(=O)(=O)c1ccc(C(=O)NNC(=O)C2CCN(S(=O)(=O)c3ccc(Cl)cc3)CC2)cc1	inconclusive [inhibitor, single point]	

SMILES	Potency	activity change, negative = inhibition
C/C(=C\C(=O)c1ccc(Br)cc1)NNC(=O)c1ccccc1	inconclusive [inhibitor, full curve, poor fit]	
CC1=C(C(=O)N(C(C)C)C(C)C)CC(CC(=O)NCCCCc2ccccc2)C(=O)N1Cc1ccc(F)cc1 (configuration not stated)	inconclusive [inhibitor, partial curve]	
CCCCOc1ccc(C(=O)N2CCC(C)CC2)cc1	inconclusive [inhibitor, single point]	
Cc1ccc(S(=O)(=O)N2[C@@H](c3ccc(Br)cc3)C(C(=O)O)=CC[C@H]2c2ccc(Cl)cc2)cc1	active: 11.2 µM	
COc1ccc(NC(=O)c2cccnc2NCCc2ccccc2)cc1	inconclusive [inhibitor, partial curve, poor fit]	
Cc1ccc(S(=O)(=O)N2CCN(C(=O)N3CCCCC3)CC2)c(C)c1	inconclusive [inhibitor, partial curve, poor fit]	
Cc1cccc(Oc2ncc(-c3ccc(Cl)cc3)cn2)c1C	inconclusive [inhibitor, partial curve, poor fit]	
O=c1cc(CSc2nc3ccccc3[nH]2)c2ccccc2[nH]1		inactive: 0%
O=C(c1ccc([N+](=O)[O-])cc1)N1CCSC1c1cccc(Cl)c1 (configuration not stated)	inconclusive [inhibitor, partial curve, poor fit]	
C/C(=N\NC(=O)C(=O)Nc1c(C)n(C)n(-c2ccccc2)c1=O)c1ccc(Cl)s1	inconclusive [inhibitor, full curve]	
CC(C)(C)OC(=O)CNC(=O)c1[nH]cnc1C(=O)N[C@@H](Cc1ccccc1)C(=O)OC(C)(C)C	inconclusive [inhibitor, single point]	
CCc1nn(CC(=O)Nc2cccc(C(C)=O)c2)c(=O)c2cc3sccc3n12		inactive: 4.17%
CCS(=O)(=O)c1ncc(Cl)c(C(=O)NCc2ccc(OC)cc2)n1	inconclusive [inhibitor, single point]	
CC(C)(C)c1ccc(C(=O)CS(=O)(=O)c2ccccc2)cc1	inconclusive [inhibitor, single point]	
COc1ccc(C(=O)NCCc2c[nH]c3ccccc23)cc1S(=O)(=O)N1CCCCC1C (configuration not stated)	inconclusive [inhibitor, single point]	
Cc1ccc(Cl)cc1NC(=O)C1CCCN(c2cnccn2)C1 (configuration not stated)	inconclusive [inhibitor, single point]	
Cc1cccc(-c2noc(CN(C(=O)c3ccc(Br)o3)C(C)C)n2)c1	inconclusive [inhibitor, single point]	
N#CCC(=O)N/N=C\c1cccc(OC/C=C/c2ccccc2)c1	active: 3.16 µM	
CC(C)Oc1ccc(C2CC(=O)N(c3cccc(Br)c3)C2=O)cc1 (configuration not stated)	inconclusive [inhibitor, single point]	
O=S(=O)(c1ccc(F)cc1)N1CCCN(Cc2c(F)cccc2F)CC1	inconclusive [inhibitor, partial curve, poor fit]	
C(=N\Nc1nc2ccccc2[nH]1)/c1c[nH]c2ccccc12	inconclusive [inhibitor, single point]	

SMILES	Potency	activity change, negative = inhibition
CC1CCCC(C)N1C(=O)CN1CCN(c2nc(-c3ccc(F)cc3)cs2)CC1 (configuration not stated)	inconclusive [inhibitor, single point]	
Cc1cc(C(=O)NC(C)CCc2ccccc2)ccc1[N+](=O)[O-] (configuration not stated)	inconclusive [inhibitor, single point]	
CCN(CC)S(=O)(=O)c1ccc(C)c(NC(=O)Cc2ccc(S(=O)(=O)N3CCOCC3)s2)c1	inconclusive [inhibitor, single point]	
Cc1nn2c(=O)cc(COC(=O)c3cccs3)nc2s1		inactive: 2.29%
Cc1cc(C)cc(OCC(=O)O/N=C(\N)Cc2ccc([N+](=O)[O-])cc2)c1	inconclusive [inhibitor, single point]	
COc1ccc(C(CNC(=O)c2ccc(-c3ccccc3)cc2)N(C)C)cc1OC (configuration not stated)	inconclusive [inhibitor, partial curve, poor fit]	
CC(=O)N(c1nnc(-c2cccc(C)c2)s1)C1CCCC1	inconclusive [inhibitor, partial curve, poor fit]	
COc1ccc(OC(C)C(=O)NC2CCCCCCC2)cc1 (configuration not stated)	inconclusive [inhibitor, single point]	
CSc1ccc(CCNC(=O)c2ccc3c(Cl)c4c(nc3c2)CCCC4)cc1		inactive: -14.1%
COc1ccccc1C(=O)NNC(=S)NC(=O)c1ccco1	inconclusive [inhibitor, single point]	
O=c1[nH]c(C2CCN(S(=O)(=O)c3ccc(F)cc3)CC2)nc2c1nnn2Cc1ccc2c(c1)OCCO2	inconclusive [inhibitor, single point]	
Cc1ccc(C)c(N2CCN(C(=O)C3CCN(S(=O)(=O)c4c(C)noc4C)CC3)CC2)c1	active: 11.2 µM	
CCOc1ncccc1C(=O)OCC(=O)c1ccc(OC)c(OC)c1		inactive: 49.2%
Cc1c(C(=O)N(C)Cc2ccccc2)oc2c(Cl)cccc12	inconclusive [inhibitor, single point]	
NC(=O)[C@H]1CC2(CC(c3cccc(NC(=O)COc4ccc(Cl)cc4)c3)=NO2)CN1C(=O)CC(c1ccccc1)c1ccccc1 (some centres not stated)	active: 10 µM	
CCc1nn(C(C)C(=O)N2CCN(c3ccccc3)CC2)c(=O)c2cc3occc3n12 (configuration not stated)	inconclusive [inhibitor, single point]	
Nc1nc(-c2cccs2)c(-c2cccs2)s1	inconclusive [inhibitor, single point]	
Cc1ccc2c(c1)C1CC(C)(O2)N(c2cccc(C(=O)NC3CCN(Cc4ccccc4)CC3)c2)C(=O)N1 (configuration not stated)	inconclusive [inhibitor, single point]	
O=C(CSc1ccc(F)cc1)NC12CC3CC(CC(C3)C1)C2	inconclusive [inhibitor, single point]	
CCN(CC)C(=S)SCC(=O)c1ccc(F)cc1	inconclusive [inhibitor, partial curve, poor fit]	
